Read counts are not given, so values of variants with three or more changes are uncertain.
B1: LINE1-full (parent)
chain: UACGUAGGUGGUUUUCCCCUGAUAGUGCUAAGGGGGCCUGGAAGUUUGGACUGGGCAGAGCUCAACACAGCGUGGCAAAGUGGCUGUGGCUAGACUGCCUCUCUGGAUUCCUCGUCACUCAGCAGGGCAUCUCUGAGAGAAAUGCC

Variants of: B1
Test: self-cleavage, relative activity (ratio to wild type); higher = more cleavage; in vitro, sequencing; the parent is a self-cleaving ribozyme

| Variant | self-cleavage |
| --- | --- |
| UACGUAGGUGGUUUCCCCCUGUUAGUGCUAAGGGGGCCUGGAAGUUUGGACUGGGCAGAGCUCAACACAGCGUGGCAAAGUGGCUGUGGCUAGACUGCCUCUCUGGAUUCCUCGUCACUCAGCAGGGCAUCUCUGAGAGAAGUGCC [U15C A22U A142G] | 1.12 |
| UACGUAGGUGGUUUUCCCCUGGUAGUGCUAAGGGGGCCAGGAAGUUUGAGCUGGGCAGAGCUCAACACAGCGUGGCAAAGUGGCUGAGGCUAGACUGCCUCUCUGGAUUCCUCGUCACUCAGCAGGGCAUCUCUGAGAGAAAUGCC [A22G U39A G49A A50G U87A] | 0.19 |
| UACGUAGGUGGUUUUCCCCUGAUAGUGCUAAGGGGGCCUGGAAGUUUGGACUGGGCAGAGCUCGACACAGCGUGGCAAAGUGGCUGUUGCUAGACUGCCUCUCUGGAUUCCUCGUCACUCGGCAGGGCAUCUCUGAGAGAAAUGCC [A64G G88U A121G] | 0 |
| UACGUAGGUGGUUCUCCCCUGAUAGUGCUAAUGGGGCCUGGAAGUUUGGACUGGGCAGAGCUCAACACAGCGUGGCAAAGUGGCUCUGGCUAGGCUGCCUCUCUGGAUUCCUCGUCACUCAGCAGGACAUCUCUGAGAGAAAUGCC [U14C G32U G86C A94G G127A] | 0.04 |
| UAUGUAGGUGGUUUUACCCUGAUAGUUCUAAGUGGGCCUGGAAGUUUGGACUGGGCAGAGCUCAACACAGCGUGGCAAAGUGGCUGUGGCUAGACUGCCUCUCUGGAUUCCUCGUCGCUCAGCAGGGCAUCUCUGAGAGAAAUGCC [C3U C16A G27U G33U A117G] | 1.18 |
| UACGUAGGUGGUUUUCCCCUGAUAGUGCUAAGGGGGCCUGGAAGUUUGGACUGGGCAGGGCUCAACACAGCGCGGCAAAGUGGCUGUGGCUAGACUGCCUCUCUGGAUUCCUCUUCUCUCAGCAGGGCAUCUCUGAGAGAAAUGCC [A59G U73C G114U A117U] | 0.09 |
| UACGCAGGUGGUUUUCCCCUGAUAGUGCUAAGGGGGCCUGGAAGUUUGAACUGGGCAGAGCUCAACACAGCGUGGCAAAGUGGCUGUGGCUAGACUGCCUCUCUGGAUUCCUCGCCACUCAGCAGGGCAUCUCUGAGAGAAAUGCC [U5C G49A U115C] | 1.15 |
| UACGUAGGUGGUUUUCCCCUGAUAGUGCUAAGGGGGCCUGGAAGUUUGGACUGGGCAGAGCCCAACACAGCGUGGCAAAGUGGCUGUGGCUAGACUGCCUCUCUGGAUUCCUCGUCACUCAGCAGGGCUCCUCUAAGAGAAAUGCC [U62C A129U U130C G135A] | 0.06 |
| UACGUAGGUGGUCUUCCCCAGAUAGUGCUAAGGGGGCCUGGAAGUUUGGACUGGGCAGAGCUCAACACAGCGUGGCAAAGUGGCUGUGGCUAGACGGCCUCUCUGGAUUCCUCGCCACUCAGCAGGGCAUCUCUGAGAGAAAUGCC [U13C U20A U96G U115C] | 0 |
| UACGUAGGUGGUUUUCCCCUGAUAGUGCUGAGGGGGCCUGGAAGUCUGGACUGGGCAGAGCUCAACACAGCGUGGCAGAGUGGCUGUGGCUAGACUGCCUCUCUGGAUUCCACGUCACUCAGCAGGGCAUCUCUGAGAGAAAUGCC [A30G U46C A78G U112A] | 0.42 |
| UACGUAGGUGGUUUUCCCCCGAUAGUGCUAAGGGGGCCCGGAAGUUUGGACUGGGCAGAGCUCAACACAGCGUGGCAAAGUGGCUGUGGCUAGACUGCCUCUCUGGAUUCCUCGUCACUCAGCAGGGCAUCUCUGAAAGAAAUGCC [U20C U39C G137A] | 1.94 |
| UACGUAGGUGGUUUUCCCCUGAUAGUGCUAAGGGGGCCUGGGAGUUUGGACUGGGCAGAGCUCAACACAGCGUGGCAAAGUGGCUGUGGCUAGACUGCCUCCCUGGAUUCCACGUCACUCAGCAGGGCAUCUCUGAGAGAAAUGCC [A42G U102C U112A] | 2.63 |
| UACGUAGGUGGUUUUCCCCUGAUAGAGCUAAGGGGGCCUGGAAGUUUGGACUGGGCAGAGCACAACACAGCGUGGCAAAGUGGCUGUGGCUAGACUGCCUCUCUGGAUUCCUCGUCACUCAGCAGGGCAUCUCUGAGAGAGAUGCC [U26A U62A A141G] | 0.09 |
| UACGUAGGUGGUAUUCCCCUGAUAGUGCUAAGGGGGCCUGGAAGUUUGGACUGGGCAGAGCUCAACUCAGCGUGGCAAAGUGGCUGUGGCUAGACUGCCUCUCUGGAUACCUCGUCACUCAGCAGGACAUCUCUGAGAGAAAUGCC [U13A A67U U109A G127A] | 0.04 |
| UACGUAGGCGGUUUUCCCCUGAUAGUGCUAAGGGGGCCUGGAAGUUUGGACCGGGCAGAGCUCAACACAGCGUGGCAAAGUGGCUGUGGCGAGACUGCCUCUCUGGAUUCCUCGUCACUCAGCAGGGCAUCUCUGAGAGAAAUGCC [U9C U52C U91G] | 0 |
| UACGUAGGUGGUUUUCCCUUGAUAGUGCUAAGGGGGCCUGGAAGUUUGGACUGGGCGGAGCUCAGCACAGCGUGGCAAAGUGGCUGUGGCUAGACUGCCUCUCUGGAUUCCUCGUCACUCAGCAGGGCAUCUCUGAGAGAAAUGCC [C19U A57G A65G] | 0.35 |
| UACGUAGGUGGUUUCCCCCUGAUAGCGCUAAGGGGGCCUGGAAGUUUGGACUGGGCAGAGCUCCACACAGCGUGGCAAAGUGGCUGUGGCUAGACUGCCUCUCUGGAUCCCUCGUCACUCAGCAGGGCAUCUCUGAGAGAAAUGCC [U15C U26C A64C U109C] | 0.36 |
| UACGUAGGUGGUUUUCCCCCGAUAGUGCUAAGGGGGCCUGGAAGUUUGGACUGGGCAGAGCUCAACACAGCGUGGCAAAGUGUCUGUGGCUAGACUGCCUCUCUGGAUUCCUCGUCACUCAGCAGGGCGUCUCUGAGAGAAGUGCC [U20C G83U A129G A142G] | 0.42 |
| UACGUAGGUGGUUUUCCCCAGAUAGUGCUAAGGGGGCCUGGAAGCCUGGACUGGGCAGAGCUCAACACAGCGUGGCAAAGUGGCUGUGGCUAGACUGCCUCUCUGGAUUCCUCGUCACUCAGCAGGGCAUCUCUGAGAGAAAUGCC [U20A U45C U46C] | 1.24 |
| UACGUAGGAGGUUUUCCCCUGAUAGUGCUAAGGGGGCCUGGAAGUUAGGACUGGGCAGAGCUCAACACAGCGUGGCAAAGUGGCUGUGGCUAGACUGCCUCUCUGGAUUCCUCAUCACUCAGCAGGGCAUCUCUGAGAGAAAUGCC [U9A U47A G114A] | 0.98 |

| Variant | self-cleavage |
| --- | --- |
| UACGUAGGUGGUUCUCCCCUGAUAGUGCUAAGGGGGCCUGGAAGUUUGGACUGGGCAGAGCUCAACACAGCGUGGCAAAGUGGCUGUGGCCAGACUGCCUCACUGGAUUCCUCGUCUCUCAGCAGGGCAUCUCUGAGAGAAAUGCC [U14C U91C U102A A117U] | 0 |
| UACGAAGGUGGCUUUCCCCUGAUAGUGCUAAGGGGGCCUGGAAGUUUGGACUGGGCAGAGCUCAACACAGCGUGGCAAAGUGGCUGUGGCUAGACUGCCUCUCCGGAUUCCCCGUCACUCAGCAGGGCAUCUCUGAGAGAAAUGCC [U5A U12C U104C U112C] | 0.71 |
| UACGUAGGUGGUUUUCCCCUGAUAGUACUAAGGGGGCCUGGAAGUUUGGACUGGGCGGAGCUCAGCACAGCGUGGCAGAGUGGCUGUGGCUAGACUGCCUCUCUGGAUACCUCGUCACUCAGCAGGGCAUCUCUGAGAGAAAUGCC [G27A A57G A65G A78G U109A] | 0 |
| UACGUAGGUGAUUCUCCCCUGAUAGUGCUAAGGGGGCCUGGGAGUUUGGACUGGGCAGAGCUCAACACAGCGUGGCAAAGUGGCUGUGGCUAGACUGCCUCUCUGGAUUCCUCGUCACUCAGCAGGGCAUCUCUGAGAGAAAUGCC [G11A U14C A42G] | 1.25 |
| UACGUAGGUGGUUUUCCCCUGAUAGUGCUAGGGGGGCCUGGAAGUUUGGACUGGGCAGAGCUCAACACUGCGUGGCAAAGUGGCUGUGGCUAGACUGCCUCUCUGGAUUCCUCGUCACUCAGCUGGGCAUCUCUGAGAGAAAUGCC [A31G A69U A124U] | 0.06 |
| UACGUAGGUGGUUUUCCCCUGAUAGUGCUAAGGGGGCCUGGAAGUUUGGACUGGGCAGAGCCCGACACAGCGUGGCAAAGUGGCUGUGGCUAGACUGCCUCUCUGGAUUCCUCGUCACUCAGCAGGGCAUCUCUGGGAGAAAUGCC [U62C A64G A136G] | 0 |
| UACGUAGGUGGUCUUCCCCUGAUAGUGCUAAGGGGGCCUGGAGGUUUGGACUGGGCAGAGCUCAACACAGCGUGGCGAAGUGGCUGUGGCUAGACUGCCUCUCUGGACUCCUCGUCACUCAGCAGGGCAUCUCUGAGAGAAAUGCC [U13C A43G A77G U108C] | 0 |
| UACGUAGGUGGCUUUCCCCUGAAAGUGCUAAGGGGGCCUGGGAGUUAGGACUGGGCAGAGCUCAACACAGCGUGGCAAAGCGGCUGUGGCUAGACUGCCUCUCUGGAUUCCUCGUCACUCAGCAGGGCAUCUCUGAGAGGAAUGCC [U12C U23A A42G U47A U81C A140G] | 2.8 |
| UACGUAGGUGGUUUUCCCCUGAUAGUGCUAAGGGGGCCUGGAAGUUUGGACUGGGCAGAGCUCAACACAGCGUGGCAAAGUGGCUGAGGCUAGACUGCCUCUCUUGAUUCCUCGUCACUCAGCUGGGCAUCUCUGAGAGAAAUGCC [U87A G105U A124U] | 0.14 |
| UACGUAGGUGGUUUUCCCCUGAUAGUGCUAAGGGGGCCUGGAAGUUUGGACUGGGCUGAGCUCAACACAGCGUGGCAAAGUGGCUGUGGCUAGACUGCCACUCUGGAUUCCUCGUCACUCAGCAGGGCAACUCUGAGAGAAAUGCC [A57U U100A U130A] | 0.08 |
| UACGUAGGUGGUUUUCCCCUGAUAGUGCUAAGGGAGCCUGGAAGUCUGGACUGGGCAGAGCUCAACACAGCGUGGCAAAGUGGCUGUGGCUAGACUGCCUCUCUGGAUUCCUCGUCACUCGGCAGGGCAUCUCUGAGAGAAAUGCC [G35A U46C A121G] | 1.64 |
| UACGUAGGUGGUUUUCCCCUGAUAGUGCUAAGGGGGCCUGGAAGUUUGGACUGGGCGGAGCUCAACACAGCGUGGCAAAGUGGCUGUGGCUAGACUGCCUCUCUGGAUUCCUCGUCACUCAGCAGGUCAUCUCUGAGAGAAGUGCC [A57G G127U A142G] | 0.76 |
| UACGUAGGAGGUUUUCCCCUGAUAGUGCUAAGAGGGCCUGGAAGUUUGGACUGGGCAGAGCUCAACACAGCGUGGCAAAGCGGCUGUGGCUAGACUGCCUCUCUGGAUUCCUCGUCACUCAGCAGGGCAUCUCUGAGAGAAAUGCC [U9A G33A U81C] | 0.89 |
| UACGUAGGUGGCUUUCCCCUGAUAGUGCUAAGGGGGCCCGGAAGUUUGGACUGGGCAGAGCUCAACACAGCGUGGCAAGGUGGCUGUGGCUAGACUGCCUCUCUGGAUUCCUCGUCACUCAGCAGGGCAUCUCUGAGAGAAAUGCC [U12C U39C A79G] | 1.28 |
| UGCGUAGGUGGUUUUCCCCUGAUAGUGCUAUGGGGGCCUGGAAGUUUGGACUGGGCAGAGCUCAACACAGCGUGGCAAAGUGGCCGUGGCUAGACUGCCUCCCUGGAUUCCUCGUCACUCAGCAGGGCAUCUCUGAGAGAAAUGCC [A2G A31U U85C U102C] | 0 |
| UACGUAGGUGGUUUUCCCCUGAUAGUGCUAAGGGGGCCUGGAAGUUUGGACUGGGCAGAGCUCAACACAGCGUGGCAAAGUGGCCGUGGCUAGACUGCCUCUCUGGAUUCCUCGUCACUCAGCAGGGCAUCUCUGAGAGAAACGUC [U85C U143C C145U] | 0.26 |
| UACGUAGGCGGUUUUCCCCUGAUAGUGCUAAGGGGGCCUGGAAGUUUGGACUGGGCAGAGCUCAACACAGCAUGGCAAAGUGGCUGUGGCUAGACUGCCUCUCUGGAUUCCUCGUCACUCAGCGGGGCAUCUCUGAGAGAAAUGCC [U9C G72A A124G] | 0.9 |
| UACGUAGGUGGUUUCCCCCUGAUAGUGCUAAGGGGGCCUGGAAGUUUGGACUGGGCAGAGCACAACACAGCGUGGCAAAGUGGCUGUGGCUAGACUGCCUCUCUGGAUUCCUCGCCACUCAGCAGGGCAUCUCUGAGAGAAAUGCC [U15C U62A U115C] | 0 |
| UAUGUAGGUGGUUUUCCCCUGGUAGUGCUAAGGGGGCCUGGAAGUUUGGACUGGGCGGAGCUCAACACGGCGUGGCAAAGUAGCUGUGGCUAGACUGCCUCUCUGGAUUCCUCGUCACUCAGCAGGGCAUCUCUGAGAGAAAUGCC [C3U A22G A57G A69G G82A] | 0.13 |

From the RNAGym collection of RNA variant scans (doi:10.7554/elife.90254)
